Here are results for 44 molecules from article PMC4336329 (PLoS ONE, 2015).

Structures are written as SMILES. Among all 310,000 compounds or so, about 2,200 (0.71%) showed an effect of 50% or more. The effect is printed as a negative number. Some of the results follow.

human ether-à-go-go-related gene (hERG) potassium channel, sequence (Q12809 whole entry, looked up): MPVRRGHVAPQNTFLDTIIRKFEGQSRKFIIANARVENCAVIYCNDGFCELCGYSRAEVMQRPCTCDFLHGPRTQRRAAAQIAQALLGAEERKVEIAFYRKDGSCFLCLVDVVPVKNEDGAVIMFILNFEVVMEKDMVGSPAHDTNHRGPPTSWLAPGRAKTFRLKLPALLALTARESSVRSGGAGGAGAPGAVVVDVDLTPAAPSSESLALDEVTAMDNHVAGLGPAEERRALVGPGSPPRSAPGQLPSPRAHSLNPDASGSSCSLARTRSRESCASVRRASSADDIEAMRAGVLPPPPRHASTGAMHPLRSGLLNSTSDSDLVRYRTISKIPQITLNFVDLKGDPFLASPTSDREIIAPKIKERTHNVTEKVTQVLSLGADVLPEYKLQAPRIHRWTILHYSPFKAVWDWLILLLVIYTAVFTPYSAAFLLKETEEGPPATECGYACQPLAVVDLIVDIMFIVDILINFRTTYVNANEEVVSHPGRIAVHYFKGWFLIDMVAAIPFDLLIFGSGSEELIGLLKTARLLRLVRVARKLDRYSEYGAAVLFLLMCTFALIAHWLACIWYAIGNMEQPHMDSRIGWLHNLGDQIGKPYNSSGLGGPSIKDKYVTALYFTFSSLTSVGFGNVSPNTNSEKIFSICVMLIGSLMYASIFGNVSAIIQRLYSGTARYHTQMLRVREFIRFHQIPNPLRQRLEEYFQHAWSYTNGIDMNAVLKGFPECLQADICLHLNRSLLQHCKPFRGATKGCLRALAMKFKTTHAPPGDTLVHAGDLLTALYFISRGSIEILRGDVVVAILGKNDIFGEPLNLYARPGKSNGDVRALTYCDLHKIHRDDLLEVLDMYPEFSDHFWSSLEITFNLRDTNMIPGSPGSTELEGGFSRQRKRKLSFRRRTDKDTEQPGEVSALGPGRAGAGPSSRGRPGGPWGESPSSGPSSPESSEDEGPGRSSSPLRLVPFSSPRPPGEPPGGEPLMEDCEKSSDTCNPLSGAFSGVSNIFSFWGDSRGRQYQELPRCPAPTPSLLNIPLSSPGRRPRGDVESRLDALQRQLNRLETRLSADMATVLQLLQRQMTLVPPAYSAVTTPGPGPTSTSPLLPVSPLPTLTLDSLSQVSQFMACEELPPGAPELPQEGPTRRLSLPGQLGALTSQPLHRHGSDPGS

This assay addresses human ether-à-go-go-related gene (hERG) potassium channel (human, UniProt Q12809). As to the kind of experiment: primary screen, population patch clamp on CHO cells stably expressing hERG.
As to `C=Cc1ccc(CSc2cc(C)nc3nc(C)nn23)cc1`, the “hERG current change (%, negative = inhibition) at 1uM” value is recorded as 0.781%.
The same measure for `O=C(CN1C(=O)NC2(CCCCCC2)C1=O)Nc1ccc(Cl)cc1Cl`: 12.6%; for `Cc1nc2nc(SCC(=O)NCCCN3CCCCC3)nn2c(C)c1Cc1ccccc1`: 9.92%.
The same measure for `CCCCCC(=O)NC(NC(=S)N1CCOCC1)C(Cl)(Cl)Cl` (centres unmarked): 9.9%.
As for `Cl.Cn1nnnc1SCCNCc1ccccc1F`, the figure is 11.1%; as for `COc1ccc(C(=O)NCCN2CCCC2)cc1[N+](=O)[O-]`, 2.2%.
For `CNC(=O)CN(Cc1ccccc1)S(=O)(=O)c1ccc(Cl)cc1`, the “hERG current change (%, negative = inhibition) at 1uM” value was 7.88%.
As for `CC(OC(=O)c1nsc(Cl)c1Cl)C(=O)NC(C)(C)C` (centres unmarked), the figure is 13.3%; as for `O=C(O)c1sccc1NC(=O)c1c(Cl)cccc1Cl`, 4%.
The same measure for `COc1ccc(C(CNC(=O)COc2ccccc2C)N2CCCCC2)cc1` (centres unmarked): -1.82%; for `Cc1ccnc(NC(=O)CC(NC(=O)c2ccccc2Cl)c2ccccc2)c1` (centres unmarked): -8.36%.
As for `COc1ccc(OC)c2c(C)cc(N3CCN(C(=O)c4ccc(F)cc4)CC3)nc12`, the figure is 13.7%.
For the molecule `COc1ccc(C(=O)NC(C)c2nnc(SCC(=O)NC3CCCC3)n2C)cc1` (centres unmarked), the “hERG current change (%, negative = inhibition) at 1uM” value stood at 11.9%.
As for `O=C(Nc1ccccc1)N1CCCc2ccccc21`, the figure is -28.2%.
The same measure for `Cn1cccc1C(=O)/C(C#N)=C/c1ccc(F)cc1`: 9.48%.
As for `COC(=O)c1ccccc1NC(=O)CSc1nc2ncccc2[nH]1`, the figure is 9.06%; as for `CC(=O)N1CCN(S(=O)(=O)c2cccc(C(=O)NCCC3=CCCCC3)c2)CC1`, 1.3%; as for `COC(=O)C1C(=O)c2c([nH]c(C(=O)OC3CCCC3)c2C)CC1C` (centres unmarked), 1.87%.
In the case of `O=c1c2ccccc2nc(Cc2ccccc2)n1-c1ccccc1`, the “hERG current change (%, negative = inhibition) at 1uM” value is listed as 6.43%.
Regarding `CC(=O)Nc1ccc(S(=O)(=O)NCC(=O)OCC(=O)N2CCCCCC2)cc1`, the “hERG current change (%, negative = inhibition) at 1uM” value is given as 11.6%.
As for `O=C(Nc1ccc(Cl)cn1)c1ccc(COc2ccccc2Br)o1`, the figure is 12.2%; as for `COc1ccc(-c2cc(C3CCN(Cc4ccc([N+](=O)[O-])cc4)CC3)[nH]n2)cc1`, -44.3%; as for `COC(=O)C1=C(c2ccccc2)C[C@@H]2CC[C@H]1N2C(=O)NCCCOC(C)C`, 9.24%.
The same measure for `O=C(NC1CCCN(CCc2ccccc2)C1)c1c(F)cccc1F` (centres unmarked): -5.35%; for `CC1(C)CC(=O)C=C(c2cccc(Cl)c2O)C1`: 7.13%.
Turning to `COc1ccc(CC(=O)c2c(O)cc(O)cc2O)cc1OC`, the “hERG current change (%, negative = inhibition) at 1uM” value amounted to 12.1%.
As for `CCOCCCn1c(=O)c2ccccc2n2c(=S)[nH]nc12`, the figure is 14.2%.
Turning to `CC(C)(C)NC(=O)CSc1nnc(-c2ccccc2)c(-c2ccccc2)n1`, the “hERG current change (%, negative = inhibition) at 1uM” value is 8.95%.
The same measure for `CCCCCCC(=O)N1CCN(c2cc3c(cc2F)c(=O)c(C(=O)O)cn3CC)CC1`: 6.27%; for `CC1CCCC(C)N1C(=O)c1ccc2c(c1)S(=O)(=O)c1ccccc1C2=O` (centres unmarked): -9.96%; for `COc1ccc(C(=O)NC(=S)N2CCNC(=O)C2CC(=O)OC(C)C)cc1` (centres unmarked): 11.6%.
On to `COC(=O)c1nnn(CC(=O)NC(=O)Nc2ccccc2F)c1C(=O)OC`, for which the “hERG current change (%, negative = inhibition) at 1uM” value is 14.7%.
For the molecule `Cc1c(Cl)cccc1NC(=S)NCCc1ccc(F)cc1`, the “hERG current change (%, negative = inhibition) at 1uM” value came out at 15.3%.
On to `CC(C)CNC(=O)NC(=O)COC(=O)c1cc(F)cc(F)c1`, for which the “hERG current change (%, negative = inhibition) at 1uM” value stood at 4.35%.
In the case of `CCCCNCc1ccc(SC)cc1.Cl`, the “hERG current change (%, negative = inhibition) at 1uM” value is 7.14%.
Regarding `CN(C)c1ccc(CNC(=O)C2CCC(CNc3c(N4CCCCC4)c(=O)c3=O)CC2)cc1` (centres unmarked), the “hERG current change (%, negative = inhibition) at 1uM” value turned out to be 13.8%.
The same measure for `CC(=O)N1c2ccc(S(=O)(=O)N3CCC(C(=O)Nc4ncccc4C)CC3)cc2CC1C` (centres unmarked): 21%; for `Cc1ccc(N2NC(=O)/C(=C/C=C/c3ccco3)C2=O)cc1C`: 23.3%; for `Cc1cc(C)c(C#N)c(SCC(=O)NN2CC(=O)N(c3ccccc3F)CC2=O)n1`: 6.03%.
The same measure for `O=C(C1CCN(S(=O)(=O)c2c(Cl)cccc2Cl)CC1)N1CCCCCCC1`: 3.01%.
Turning to `O=C1OCCN1c1c(-c2ccccc2)c(-c2cccs2)nc2c(-c3ccccc3)cccc12`, the “hERG current change (%, negative = inhibition) at 1uM” value is given as 9.44%.
The same measure for `CN(C)/N=C/C=C1\CC/C(=C\c2ccc(Br)cc2)C1=O`: 3.17%.
As for `COCCCNC(=O)C1CC(=O)N(C2CCCC2)C1` (centres unmarked), the figure is 12.2%; as for `O=C(N/N=C/c1c(O)n(C2CC2)c(=S)[nH]c1=O)c1ccccc1`, 28.7%.
